The values that follow come from the RNAGym collection of RNA variant scans (doi:10.1073/pnas.2313332121).

The labels stand for the following.
B1: TPR 5TU (parent)
chain: GGAUCUUCUCGAUCUAACAAAAAAGACAAAUCUGCCACAAAGCUUGAGAGCAUCUUCGGAUGCAGAGGCGGCAGCCUUCGGUGGCGCGAUAGCGCCAACGUUCUCAACUAUGACACGCAAAACGCGUGCUCCGUUGAAUGGAGUUUAUCAUG

This sample is rich in variants without activity. Some results are limits rather than exact numbers.

The variants in this series derive from B1. The series can be described thus: polymerase ribozyme fitness, log enrichment relative to wild type (log ratio); higher = more active; in vitro selection for triplet polymerase activity. The procedure, abridged:
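Each subunit of a heterodimeric triplet polymerase ribozyme was represented by a PCR-built, transcribed mutant library that underwent triplicate single-round in vitro selection with frozen incubation at −7 °C. Extended constructs were recovered by gel excision, streptavidin-bead capture and RT-PCR, and Illumina sequencing of input and output libraries kept genotypes with ≥10 input reads and ≥1 read per output. Fitness is the logarithm of genotype enrichment relative to wild-type enrichment, from inverse-variance-weighted replicate averages, with a logarithm base of 2.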
Turning to U45A C54G U56G G62C C85A U144G, the “polymerase ribozyme fitness (log ratio)” value is not above -4.2.

On to U44G G81U U82C C149U, for which the “polymerase ribozyme fitness (log ratio)” value is not above -4.2.

For the variant G42U C99U A120C A137C, the “polymerase ribozyme fitness (log ratio)” value was not above -4.2.

As to G42C G80U C85U, the “polymerase ribozyme fitness (log ratio)” value is not above -4.2.

On to U44G C125U A147C, for which the “polymerase ribozyme fitness (log ratio)” value is not above -4.2.

Take G42A G58C: the “polymerase ribozyme fitness (log ratio)” value was not above -4.2.

Consider G42C G62C U134A, for which the “polymerase ribozyme fitness (log ratio)” value was not above -4.2.

For A40G G71A C131G, the “polymerase ribozyme fitness (log ratio)” value is not above -4.2.

As to G42U C43U C95U C99G C103A U135G, the “polymerase ribozyme fitness (log ratio)” value was not above -4.2.

As for A40G C54G U61A C75G G92A U144A, the “polymerase ribozyme fitness (log ratio)” value was not above -4.2.

As for G42A A60U C95U U144C, the “polymerase ribozyme fitness (log ratio)” value was not above -4.2.

On to U45A G59A G140C, for which the “polymerase ribozyme fitness (log ratio)” value was not above -4.2.

In the case of C43A A47C G83C G126U C131U, the “polymerase ribozyme fitness (log ratio)” value is not above -4.2.

In the case of A41C A60C U90G C103A C116U C129A G143C, the “polymerase ribozyme fitness (log ratio)” value was not above -4.2.

Consider U44G G48A G68A C87A U102G U134G, for which the “polymerase ribozyme fitness (log ratio)” value was not above -4.2.

For the variant G42A U53A U55A C116G, the “polymerase ribozyme fitness (log ratio)” value was not above -4.2.

For A40C U61C C76U G84U C96G U109C, the “polymerase ribozyme fitness (log ratio)” value is not above -4.2.

As for A41G C87A A106U G140C G141U U146C, the “polymerase ribozyme fitness (log ratio)” value is not above -4.2.

For the variant A40G A106G C116G C118G U144C, the “polymerase ribozyme fitness (log ratio)” value was not above -4.2.

On to C43A G62U C75A C76A C95U, for which the “polymerase ribozyme fitness (log ratio)” value is not above -4.2.

Consider C43U C93U A98U, for which the “polymerase ribozyme fitness (log ratio)” value was not above -4.2.

A41G C79G G81C A120G A150C: the “polymerase ribozyme fitness (log ratio)” value was not above -4.2.

Take G42A C57G G68A A137C: the “polymerase ribozyme fitness (log ratio)” value is not above -4.2.

In the case of A41C C43U C57A C76A U78C G92A, the “polymerase ribozyme fitness (log ratio)” value is not above -4.2.

For the variant A41G U44A C54U C105A A106G, the “polymerase ribozyme fitness (log ratio)” value is not above -4.2.

In the case of A41G C76A G80U C96U C114U U145A, the “polymerase ribozyme fitness (log ratio)” value was not above -4.2.

On to A40G A60G C76G C79U G86U G94A C108G, for which the “polymerase ribozyme fitness (log ratio)” value is not above -4.2.

Turning to G42U U61G A73G C125U A142C, the “polymerase ribozyme fitness (log ratio)” value is not above -4.2.

In the case of A40U G42U U55C U61A C118U, the “polymerase ribozyme fitness (log ratio)” value was not above -4.2.

As to G42A C85G A122C, the “polymerase ribozyme fitness (log ratio)” value is not above -4.2.

In the case of G42U U56A C76U C87A C116U G140C, the “polymerase ribozyme fitness (log ratio)” value was not above -4.2.

In the case of G42U G83A A138G G140A U145G, the “polymerase ribozyme fitness (log ratio)” value was not above -4.2.

For the variant C43A C96G C116A G140C, the “polymerase ribozyme fitness (log ratio)” value was not above -4.2.

With U44G U56G A91U G124C, the “polymerase ribozyme fitness (log ratio)” value is not above -4.2.

Turning to A40U U56A G74C C96U C103A A138G, the “polymerase ribozyme fitness (log ratio)” value was not above -4.2.

In the case of A40U A64G U102A U111A U134C, the “polymerase ribozyme fitness (log ratio)” value was not above -4.2.

U45A A52G A73G C96G: the “polymerase ribozyme fitness (log ratio)” value is not above -4.2.

With C43U C149G, the “polymerase ribozyme fitness (log ratio)” value is not above -4.2.

As for U45A G92U U101G, the “polymerase ribozyme fitness (log ratio)” value is not above -4.2.

As for A41G A52C C85G A91U G128C, the “polymerase ribozyme fitness (log ratio)” value was not above -4.2.

With A41G G74A U111C, the “polymerase ribozyme fitness (log ratio)” value was not above -4.2.

On to A41C U78C C87U G94A C99G, for which the “polymerase ribozyme fitness (log ratio)” value was not above -4.2.

Regarding U44G G67C A107U, the “polymerase ribozyme fitness (log ratio)” value was not above -4.2.

For A41C U55G C87G A120G U127A, the “polymerase ribozyme fitness (log ratio)” value is not above -4.2.

Take A41U C69U C87U C149A: the “polymerase ribozyme fitness (log ratio)” value was not above -4.2.

A41C G88U C96G C103A: the “polymerase ribozyme fitness (log ratio)” value was not above -4.2.

As for G42A G50U C95A A115U A119C, the “polymerase ribozyme fitness (log ratio)” value is not above -4.2.

Turning to C43G C75A G88A U109G U144A A147U, the “polymerase ribozyme fitness (log ratio)” value is not above -4.2.

On to U45A C54U C95G A97C U146C A150G, for which the “polymerase ribozyme fitness (log ratio)” value is not above -4.2.

For A40G C87G A89G, the “polymerase ribozyme fitness (log ratio)” value is not above -4.2.

As to U45A G59U A73G G80A G86C A91U G92A A106G G136A A142C, the “polymerase ribozyme fitness (log ratio)” value was not above -4.2.

Turning to A41G G42U A73U C76U U78C C85G C95U A119C U127A U145A, the “polymerase ribozyme fitness (log ratio)” value was not above -4.2.

As for A40C U61G G80C C96G A107G, the “polymerase ribozyme fitness (log ratio)” value is not above -4.2.

A40G C54A C87U U101G U134G: the “polymerase ribozyme fitness (log ratio)” value is not above -4.2.

For A41G U45A C87A U109G C125G U151A, the “polymerase ribozyme fitness (log ratio)” value was not above -4.2.

With U44A U53A C54U G84U C108G G136U, the “polymerase ribozyme fitness (log ratio)” value is not above -4.2.

Take A41G G58A U90G C125U G141U: the “polymerase ribozyme fitness (log ratio)” value was not above -4.2.

For U44A C51U G92A U104G, the “polymerase ribozyme fitness (log ratio)” value is not above -4.2.

As to A40G A47U G50C G65U G80C C87G U104G, the “polymerase ribozyme fitness (log ratio)” value was not above -4.2.

U45A C93U G143C: the “polymerase ribozyme fitness (log ratio)” value was not above -4.2.

On to U44A C87U G124A, for which the “polymerase ribozyme fitness (log ratio)” value was not above -4.2.

Consider G42U G58A A91U C114A C129G G141C, for which the “polymerase ribozyme fitness (log ratio)” value is not above -4.2.

As for C43U A89C C99U A137C G141C, the “polymerase ribozyme fitness (log ratio)” value is not above -4.2.

In the case of A41C G86A A107C G136C U139G, the “polymerase ribozyme fitness (log ratio)” value was not above -4.2.

Turning to A41C G65A G68A U101A U130G, the “polymerase ribozyme fitness (log ratio)” value was not above -4.2.

As to C43U G70C G80A C149U, the “polymerase ribozyme fitness (log ratio)” value is not above -4.2.

Consider C43U A64G G81C C93A A106G G117C A120C A137G, for which the “polymerase ribozyme fitness (log ratio)” value is not above -4.2.

On to G42A A49U A52C U82A A106G, for which the “polymerase ribozyme fitness (log ratio)” value was not above -4.2.

Consider G42A C131G, for which the “polymerase ribozyme fitness (log ratio)” value was not above -4.2.

Turning to G42U G81U A89C C95G C99G U134G G143C U151C, the “polymerase ribozyme fitness (log ratio)” value is not above -4.2.

Take G42U G62U A98G U104G U134C: the “polymerase ribozyme fitness (log ratio)” value was not above -4.2.

In the case of C43U G86U A97G U111G C132A U135G, the “polymerase ribozyme fitness (log ratio)” value is not above -4.2.

C43G C54G G68U G81U C96A A113G: the “polymerase ribozyme fitness (log ratio)” value was not above -4.2.

For U45A A91G A119U, the “polymerase ribozyme fitness (log ratio)” value is not above -4.2.

Regarding U44A C63U G92U C96A U104G A110C, the “polymerase ribozyme fitness (log ratio)” value was not above -4.2.

U44A G92A A107U U146C: the “polymerase ribozyme fitness (log ratio)” value is not above -4.2.

For U44A G86C, the “polymerase ribozyme fitness (log ratio)” value is not above -4.2.

In the case of C43U C96U A97U, the “polymerase ribozyme fitness (log ratio)” value is not above -4.2.

For the variant A40G U44G U56C G65C U90A C96U G136A, the “polymerase ribozyme fitness (log ratio)” value is not above -4.2.

As for G42A A47U C51U A60U G83U C99G C131A U146G, the “polymerase ribozyme fitness (log ratio)” value was not above -4.2.

Consider G42U G81U G94C A97G, for which the “polymerase ribozyme fitness (log ratio)” value is not above -4.2.

In the case of U44A A47U C69A G94A, the “polymerase ribozyme fitness (log ratio)” value was not above -4.2.

For the variant G42A A47C C96U C105G G140A C149G, the “polymerase ribozyme fitness (log ratio)” value was not above -4.2.
